Laboratory results as given in the supplement of paper PMC4967469.
pIC50: −log10 of the molar value. A lower IC50 marks a more sensitive line; where the fit passes the top or lowest dose, that dose stands as a limit. For AUC the same curve is integrated over the 256-fold range of doses and scaled to a fraction; it is 1 without any effect and falls as sensitivity rises. For part of these data: The top dose, if marked as inferred, was calculated from the reported fits.

What was measured:
Assay in all cases: Viability of human cancer cell lines after 72 h of drug (GDSC screen)
Methotrexate = compound: CN(Cc1cnc2nc(N)nc(N)c2n1)c1ccc(C(=O)N[C@@H](CCC(=O)O)C(=O)O)cc1 [Methotrexate]; conditions: top dose 0.2 µM
Method: (§1)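 Human cancer cell lines in 384-well plates, medium with 10% serum, drug for 72 h over a 256-fold dose range (nine 2-fold or five 4-fold steps up to the top dose). Adherent lines were fixed and stained with the nucleic acid dye Syto60, suspension lines read with resazurin; signal relative to control wells, capped at 0 and 100%. One two-parameter sigmoid per drug and line, fitted in a mixed model over all curves with the slope shared within a line.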

Vorinostat = compound: O=C(CCCCCCC(=O)Nc1ccccc1)NO [Vorinostat]; conditions: top dose 10 µM
Method: as §1

Axitinib = compound: CNC(=O)c1ccccc1Sc1ccc2c(/C=C/c3ccccn3)n[nH]c2c1 [Axitinib]; conditions: top dose 2 µM
Method: as §1

SN-38 = compound: CCc1c2c(nc3ccc(O)cc13)-c1cc3c(c(=O)n1C2)COC(=O)[C@]3(O)CC [SN-38]; conditions: top dose 0.05 µM; top dose inferred
Method: as §1

Dabrafenib = compound: CC(C)(C)c1nc(-c2cccc(NS(=O)(=O)c3c(F)cccc3F)c2F)c(-c2ccnc(N)n2)s1 [Dabrafenib]; conditions: top dose 10 µM
Method: as §1

## Hs939-T (melanoma, adherent)
Methotrexate
  AUC: 0.986
  pIC50: < 6.70
Vorinostat
  AUC: 0.721
  pIC50: 5.55
Axitinib
  AUC: 0.94
  pIC50: < 5.70
SN-38
  AUC: 0.862
  pIC50: 7.31

## IGR-1 (melanoma, adherent)
Methotrexate
  AUC: 0.97
  pIC50: < 6.70
Vorinostat
  AUC: 0.84
  pIC50: 5.24
Axitinib
  AUC: 0.967
  pIC50: < 5.70
SN-38
  AUC: 0.769
  pIC50: 7.78

## JSC-1 (B-cell lymphoma, suspension)
Vorinostat
  AUC: 0.521
  pIC50: 6.15
Axitinib
  AUC: 0.953
  pIC50: < 5.70
SN-38
  AUC: 0.468
  pIC50: 8.59
Dabrafenib
  AUC: 0.959
  pIC50: < 5.00

## JiyoyeP-2003 (Burkitt lymphoma, suspension)
Vorinostat
  AUC: 0.703
  pIC50: 5.67
Axitinib
  AUC: 0.979
  pIC50: < 5.70
SN-38
  AUC: 0.701
  pIC50: 7.97
Dabrafenib
  AUC: 0.962
  pIC50: < 5.00

## KARPAS-1106P (B-cell lymphoma, suspension)
Vorinostat
  AUC: 0.445
  pIC50: 6.34
Axitinib
  AUC: 0.993
  pIC50: < 5.70
SN-38
  AUC: 0.512
  pIC50: 8.47
Dabrafenib
  AUC: 0.987
  pIC50: < 5.00

## KELLY (neuroblastoma, adherent)
Vorinostat
  AUC: 0.607
  pIC50: 5.92
Axitinib
  AUC: 0.916
  pIC50: < 5.70
SN-38
  AUC: 0.398
  pIC50: 8.77
Dabrafenib
  AUC: 0.979
  pIC50: < 5.00

## KMS-12-BM (myeloma, suspension)
Methotrexate
  AUC: 0.914
  pIC50: < 6.70
Vorinostat
  AUC: 0.378
  pIC50: 6.51
Axitinib
  AUC: 0.917
  pIC50: < 5.70

## KON (head and neck, adherent)
Vorinostat
  AUC: 0.75
  pIC50: 5.49
Axitinib
  AUC: 0.864
  pIC50: 5.77
SN-38
  AUC: 0.386
  pIC50: 8.82
Dabrafenib
  AUC: 0.907
  pIC50: < 5.00

## KURAMOCHI (ovary, adherent)
Vorinostat
  AUC: 0.809
  pIC50: 5.20
Axitinib
  AUC: 0.965
  pIC50: < 5.70
SN-38
  AUC: 0.895
  pIC50: < 7.30
Dabrafenib
  AUC: 0.982
  pIC50: < 5.00

## KYSE-140 (oesophagus, adherent)
Methotrexate
  AUC: 0.861
  pIC50: < 6.70
Vorinostat
  AUC: 0.761
  pIC50: 5.40
Axitinib
  AUC: 0.961
  pIC50: < 5.70

## LN-229 (glioma, adherent)
Vorinostat
  AUC: 0.802
  pIC50: 5.31
Axitinib
  AUC: 0.988
  pIC50: < 5.70
SN-38
  AUC: 0.55
  pIC50: 8.37
Dabrafenib
  AUC: 0.969
  pIC50: < 5.00

## MDA-MB-175-VII (breast, adherent)
Vorinostat
  AUC: 0.814
  pIC50: 5.21
Axitinib
  AUC: 0.988
  pIC50: < 5.70
SN-38
  AUC: 0.777
  pIC50: 7.65
Dabrafenib
  AUC: 0.972
  pIC50: < 5.00

## MHH-NB-11 (neuroblastoma, adherent)
Methotrexate
  AUC: 0.905
  pIC50: < 6.70
Vorinostat
  AUC: 0.634
  pIC50: 5.82
Axitinib
  AUC: 0.804
  pIC50: 5.95

## MKN28 (stomach, adherent)
Methotrexate
  AUC: 0.923
  pIC50: < 6.70
Vorinostat
  AUC: 0.699
  pIC50: 5.64
Axitinib
  AUC: 0.969
  pIC50: < 5.70

## MOLT-13 (T-cell lymphoblastic leukaemia, suspension)
Vorinostat
  AUC: 0.545
  pIC50: 6.09
Axitinib
  AUC: 0.941
  pIC50: < 5.70
SN-38
  AUC: 0.322
  pIC50: 8.97
Dabrafenib
  AUC: 0.713
  pIC50: 5.64

## MSTO-211H (mesothelioma, adherent)
Methotrexate
  AUC: 0.915
  pIC50: < 6.70
Vorinostat
  AUC: 0.851
  pIC50: 5.18
Axitinib
  AUC: 0.968
  pIC50: < 5.70

## MY-M12 (leukaemia, suspension)
Methotrexate
  AUC: 0.565
  pIC50: 7.72
Vorinostat
  AUC: 0.472
  pIC50: 6.29
Axitinib
  AUC: 0.715
  pIC50: 6.26

## NB69 (neuroblastoma, adherent)
Methotrexate
  AUC: 0.983
  pIC50: < 6.70
Vorinostat
  AUC: 0.437
  pIC50: 6.37
Axitinib
  AUC: 0.974
  pIC50: < 5.70

## NCI-H64 (small cell lung carcinoma, suspension)
Methotrexate
  AUC: 0.972
  pIC50: < 6.70
Vorinostat
  AUC: 0.569
  pIC50: 6.04
Axitinib
  AUC: 0.98
  pIC50: < 5.70

## NCI-H187 (small cell lung carcinoma, suspension)
Vorinostat
  AUC: 0.636
  pIC50: 5.81
Axitinib
  AUC: 0.974
  pIC50: < 5.70
SN-38
  AUC: 0.739
  pIC50: 7.79
Dabrafenib
  AUC: 0.987
  pIC50: < 5.00

## NCI-H446 (small cell lung carcinoma, semi-adherent)
Vorinostat
  AUC: 0.649
  pIC50: 5.78
Axitinib
  AUC: 0.899
  pIC50: < 5.70
SN-38
  AUC: 0.725
  pIC50: 7.84
Dabrafenib
  AUC: 0.973
  pIC50: < 5.00

## NCI-H510A (small cell lung carcinoma, semi-adherent)
Methotrexate
  AUC: 0.989
  pIC50: < 6.70
Vorinostat
  AUC: 0.581
  pIC50: 5.99
Axitinib
  AUC: 0.889
  pIC50: 5.71

## NCI-H838 (lung adenocarcinoma, adherent)
Vorinostat
  AUC: 0.765
  pIC50: 5.42
Axitinib
  AUC: 0.973
  pIC50: < 5.70
SN-38
  AUC: 0.753
  pIC50: 7.76
Dabrafenib
  AUC: 0.977
  pIC50: < 5.00

## NCI-H1048 (small cell lung carcinoma, adherent)
Vorinostat
  AUC: 0.739
  pIC50: 5.56
Axitinib
  AUC: 0.903
  pIC50: < 5.70
SN-38
  AUC: 0.232
  pIC50: 9.24
Dabrafenib
  AUC: 0.989
  pIC50: < 5.00

## NCI-H1703 (lung adenocarcinoma, adherent)
Vorinostat
  AUC: 0.85
  pIC50: < 5.00
Axitinib
  AUC: 0.241
  pIC50: 7.73
SN-38
  AUC: 0.719
  pIC50: 7.82
Dabrafenib
  AUC: 0.948
  pIC50: < 5.00

## NCI-H1734 (lung adenocarcinoma, adherent)
Methotrexate
  AUC: 0.985
  pIC50: < 6.70
Vorinostat
  AUC: 0.706
  pIC50: 5.59
Axitinib
  AUC: 0.976
  pIC50: < 5.70

## NCI-H2052 (mesothelioma, adherent)
Methotrexate
  AUC: 0.943
  pIC50: < 6.70
Vorinostat
  AUC: 0.861
  pIC50: < 5.00
Axitinib
  AUC: 0.939
  pIC50: < 5.70

## OAW-42 (ovary, adherent)
Vorinostat
  AUC: 0.726
  pIC50: 5.53
Axitinib
  AUC: 0.928
  pIC50: < 5.70
SN-38
  AUC: 0.579
  pIC50: 8.28
Dabrafenib
  AUC: 0.87
  pIC50: < 5.00

## OE19 (oesophagus, adherent)
Vorinostat
  AUC: 0.804
  pIC50: 5.24
Axitinib
  AUC: 0.938
  pIC50: < 5.70
SN-38
  AUC: 0.935
  pIC50: < 7.30
Dabrafenib
  AUC: 0.972
  pIC50: < 5.00

## SBC-5 (small cell lung carcinoma, adherent)
Vorinostat
  AUC: 0.704
  pIC50: 5.69
Axitinib
  AUC: 0.963
  pIC50: < 5.70
SN-38
  AUC: 0.576
  pIC50: 8.32
Dabrafenib
  AUC: 0.987
  pIC50: < 5.00

## SNU-C2B (large intestine, adherent)
Vorinostat
  AUC: 0.762
  pIC50: 5.33
Axitinib
  AUC: 0.98
  pIC50: < 5.70
SN-38
  AUC: 0.644
  pIC50: 8.05
Dabrafenib
  AUC: 0.97
  pIC50: < 5.00

## TYK-nu (ovary, adherent)
Vorinostat
  AUC: 0.646
  pIC50: 5.79
Axitinib
  AUC: 0.976
  pIC50: < 5.70
SN-38
  AUC: 0.439
  pIC50: 8.68
Dabrafenib
  AUC: 0.773
  pIC50: 5.38

## VMRC-RCW (kidney, adherent)
Methotrexate
  AUC: 0.962
  pIC50: < 6.70
Vorinostat
  AUC: 0.85
  pIC50: 5.17
Axitinib
  AUC: 0.957
  pIC50: < 5.70
